The record followed here is paper PMC6919601, “Identification of Plasmodium dipeptidyl aminopeptidase allosteric inhibitors by high throughput screening” (PLoS ONE, 2019).

Hit rate of the full screen: of about 110,000 compounds, about 230 (0.21%) showed an effect of 50% or more. The list shows a part of the results.
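Further: 30 min substrate incubation versus DMSO and 10 µM JCP410 controls.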

The target in the assay is DPAP1 (Plasmodium falciparum, UniProt Q8IIJ9). The assay is described as follows: primary screen, percent inhibition; read by cleavage of a fluorogenic dipeptide substrate; higher = more effect of the substance. Further details: species or system P. falciparum D10 trophozoite lysates; single well.
Chain of DPAP1 (Q8IIJ9 whole entry, looked up): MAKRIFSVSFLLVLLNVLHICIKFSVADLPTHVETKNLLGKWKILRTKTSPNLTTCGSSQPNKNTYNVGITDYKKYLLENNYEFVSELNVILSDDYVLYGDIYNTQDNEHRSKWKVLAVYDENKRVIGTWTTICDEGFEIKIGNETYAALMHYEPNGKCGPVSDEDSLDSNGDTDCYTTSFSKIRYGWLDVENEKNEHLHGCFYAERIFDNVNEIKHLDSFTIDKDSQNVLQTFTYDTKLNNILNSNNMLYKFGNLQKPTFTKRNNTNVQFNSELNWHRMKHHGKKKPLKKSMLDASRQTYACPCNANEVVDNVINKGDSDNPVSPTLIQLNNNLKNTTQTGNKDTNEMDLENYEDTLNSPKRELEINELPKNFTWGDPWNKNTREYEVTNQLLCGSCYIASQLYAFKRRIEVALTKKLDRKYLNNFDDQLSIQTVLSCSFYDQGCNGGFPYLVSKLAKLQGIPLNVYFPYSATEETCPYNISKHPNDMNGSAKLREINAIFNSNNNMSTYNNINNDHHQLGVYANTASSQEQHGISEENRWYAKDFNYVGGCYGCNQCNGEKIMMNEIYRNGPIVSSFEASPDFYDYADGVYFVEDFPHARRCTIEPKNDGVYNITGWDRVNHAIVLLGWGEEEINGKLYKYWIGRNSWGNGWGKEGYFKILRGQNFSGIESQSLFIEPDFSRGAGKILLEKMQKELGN
Turning to `CC(=O)Nc1ccc(CNc2ccc(C)cc2)cc1`, the “% Inhibition @ 10 uM” value is given as 4.08%.

Take `Sc1nc2ccccc2n2c(S)nnc12`: the “% Inhibition @ 10 uM” value is given as -7.42%.

For the compound `CC(C)NC(=O)CCCN1C(=O)c2ccccc2Sc2ncccc21`, the “% Inhibition @ 10 uM” value stood at 2.33%.

`Cc1nnc(SCc2ccc(F)cc2Cl)c2cc3occc3n12`: the “% Inhibition @ 10 uM” value amounted to 3.88%.

Consider `CCOC(=O)c1c(C)oc(N)c1C#N`, for which the “% Inhibition @ 10 uM” value is recorded as -8.8%.

With `COc1ccc(NC(=O)c2sc(Cl)nc2-c2ccccc2)cc1`, the “% Inhibition @ 10 uM” value is -3.45%.

`CCN(CC)c1ncnc2c1c(-c1ccccc1)cn2-c1ccc(F)cc1`: the “% Inhibition @ 10 uM” value is given as -4.28%.

Consider `CN1CCC(O)(c2ccccc2)C(C(=O)c2ccccc2)C1` (stereo not shown), for which the “% Inhibition @ 10 uM” value is recorded as 1.21%.

Regarding `O=C(ON1C(=O)c2ccccc2C1=O)c1ccco1`, the “% Inhibition @ 10 uM” value came out at 43.8%.

Consider `O=C(NCCN1CCCCC1)c1ccccn1`, for which the “% Inhibition @ 10 uM” value is 11.9%.

For the compound `Cc1ccc2oc(-c3cc(NC(=O)c4nc[nH]n4)ccc3O)nc2c1`, the “% Inhibition @ 10 uM” value is -7.28%.

As for `COc1cc(CN2CCSCC2)cc([N+](=O)[O-])c1O`, the “% Inhibition @ 10 uM” value is given as -0.828%.

Consider `COc1ccc(/C=C2\SC(=O)N(CC(=O)N3CCCCC3)C2=O)cc1OC`, for which the “% Inhibition @ 10 uM” value was -1.06%.

On to `Cc1nn(CC(O)COc2ccc3c(c2)CCC3)c(C)c1Cl` (stereo not shown), for which the “% Inhibition @ 10 uM” value is listed as 2.99%.

With `CSc1nnc(NC(=O)c2cc(=O)c3cc(C)ccc3o2)s1`, the “% Inhibition @ 10 uM” value is given as 0.248%.

Consider `CCCCc1ccc(-n2c(C)cc(C=C3C(=O)NC(=O)NC3=O)c2C)cc1`, for which the “% Inhibition @ 10 uM” value is on record as 1.91%.

As for `CC(C)C1C(=O)CC(c2ccccc2)NC1c1ccccc1` (stereo not shown), the “% Inhibition @ 10 uM” value is on record as -1.25%.

As to `Cc1cccc(C)c1OCC(=O)Nc1ccc(Br)cc1F`, the “% Inhibition @ 10 uM” value is reported as 5.67%.

Turning to `COc1cccc(NC(=O)CN(Cc2ccc(Cl)cc2)S(=O)(=O)c2ccc(Cl)cc2)c1`, the “% Inhibition @ 10 uM” value is on record as -5.27%.

In the case of `OCCN1CCN(c2nc(N3CCCCC3)nc(N3CCCCC3)n2)CC1`, the “% Inhibition @ 10 uM” value was 0.605%.

On to `Cc1ccc(-c2nnc(C3CCN(S(=O)(=O)c4ccc(CC(C)C)cc4)CC3)o2)cc1`, for which the “% Inhibition @ 10 uM” value was -4.98%.

As for `N#C/C(=C\c1cc(Br)ccc1OCc1ccccc1)c1nn(CCO)c(N)c1C#N`, the “% Inhibition @ 10 uM” value was 10.2%.

Turning to `COc1ccc(CNCCc2ccc(F)cc2)c(OC)c1C`, the “% Inhibition @ 10 uM” value is recorded as 12.8%.

As to `CCCc1c(-c2ccccc2)nc2sc3c(c2c1N)CCCC3`, the “% Inhibition @ 10 uM” value is on record as -0.436%.

`O=C(O)CS(=O)(=O)c1ccccc1C(=O)O`: the “% Inhibition @ 10 uM” value is on record as -2.03%.

For the compound `CN1CCCN(Cc2cccc(Oc3ccccc3)c2)CC1`, the “% Inhibition @ 10 uM” value is reported as -1.86%.

Take `NS(=O)(=O)c1ccc(CNC(=O)c2ccc(Br)o2)cc1`: the “% Inhibition @ 10 uM” value turned out to be 2.32%.

Consider `C#CCN1C(=O)S/C(=C\c2ccccc2OCC)C1=O`, for which the “% Inhibition @ 10 uM” value is -1.51%.

For `O=C(CCCN1C(=O)C(c2ccccc2)Oc2cccnc21)NCc1ccc2c(c1)OCO2` (stereo not shown), the “% Inhibition @ 10 uM” value amounted to 4.41%.

Regarding `Cc1cccc(NC(=O)c2cccc3c2-c2ccccc2C3=O)n1`, the “% Inhibition @ 10 uM” value was 12.7%.

Take `CC(C)NS(=O)(=O)c1ccc(OCC(=O)N2CCOCC2)cc1`: the “% Inhibition @ 10 uM” value is -1.1%.

In the case of `OCCC1CCCCN1C1CC2CCC1C2` (stereo not shown), the “% Inhibition @ 10 uM” value was -5.44%.

In the case of `CC1CCN(C2CCN(C(=O)c3ccccc3F)CC2)CC1`, the “% Inhibition @ 10 uM” value is 0.222%.

Take `CCC(=O)NCCCc1nc2ccccc2n1Cc1ccc(C)cc1`: the “% Inhibition @ 10 uM” value worked out at 2.73%.

With `COC(=O)C1=CN(C)C=C(C(=O)OC)C1c1ccccc1OC(C)C`, the “% Inhibition @ 10 uM” value is recorded as 1.86%.

On to `Cn1c(=O)c(-c2ccccc2)c(O)c2c(=O)n(-c3ccccc3)c(=O)n(-c3ccccc3)c21`, for which the “% Inhibition @ 10 uM” value was -1.07%.

As to `Cn1c(=O)[nH]c(=O)c2c1ncn2CCN1CCCCCC1`, the “% Inhibition @ 10 uM” value worked out at 0.606%.

Consider `O=[N+]([O-])c1ccc(N2CCOCC2)cc1[N+](=O)[O-]`, for which the “% Inhibition @ 10 uM” value is given as -0.736%.

For `N#CCNC(=O)C(Cc1c[nH]c2ccccc12)NC(=O)OCc1ccccc1` (stereo not shown), the “% Inhibition @ 10 uM” value is reported as -1.41%.

As for `C=CCN1C(=O)/C(=C/C=C/c2ccccc2)C(=O)NC1=S`, the “% Inhibition @ 10 uM” value came to 2.51%.

Turning to `CCOc1ccc(C2=C/C(=C/c3cccc(OC)c3OC)C(=O)O2)cc1`, the “% Inhibition @ 10 uM” value was found to be 1.52%.

As to `CN(C)CCN(Cc1ccccc1)C(=O)Cn1ncc2c3ccccc3nc-2c1O`, the “% Inhibition @ 10 uM” value turned out to be 3.72%.

For `CC(NC(=O)c1cc(S(=O)(=O)N2CCOCC2)cn1C)c1ccc2c(c1)OCCO2` (stereo not shown), the “% Inhibition @ 10 uM” value is recorded as 7.5%.

Turning to `O=C1/C(=C/c2ccccc2Cl)Cc2ccccc21`, the “% Inhibition @ 10 uM” value is listed as -5.51%.

Regarding `COc1ccc2c(c1)-c1nc(C)sc1CC2`, the “% Inhibition @ 10 uM” value is -3.53%.

For `O=C(Nc1ccccc1Cl)c1ccc2c(c1)C(=O)N(Cc1ccco1)C2=O`, the “% Inhibition @ 10 uM” value is reported as -1.38%.

`C/C(NCCc1ccc(Cl)cc1Cl)=C(\C#N)C(=O)NC1CCCCC1`: the “% Inhibition @ 10 uM” value is 2.17%.

In the case of `CC(C)c1ccc(-c2csc(NC(=O)C3CC3)n2)cc1`, the “% Inhibition @ 10 uM” value is 5.37%.

As to `COc1ccc(S(=O)(=O)NCC2CCCO2)cc1C(=O)O` (stereo not shown), the “% Inhibition @ 10 uM” value was -0.559%.

As to `Cc1cc(-c2ccc(C)c(S(=O)(=O)NCC3CCN(CCC(C)C)CC3)c2)on1`, the “% Inhibition @ 10 uM” value was 2.24%.

Turning to `Cc1cc(-c2ccc(NS(C)(=O)=O)c(C)c2)ccc1NS(C)(=O)=O`, the “% Inhibition @ 10 uM” value is -5.6%.

With `COc1ccccc1/C=C/c1nc(C#N)c(NCCCn2ccnc2)o1`, the “% Inhibition @ 10 uM” value was determined as 3.94%.

Consider `CSc1nc(O)c(Cc2cc(C(C)=O)ccc2OC(C)C)c(O)n1`, for which the “% Inhibition @ 10 uM” value is -1.55%.

With `CC(C)(C)NC(=O)COc1ccccc1C#N`, the “% Inhibition @ 10 uM” value is -5.32%.

With `COCCCNC(=O)CCN1C(=O)c2ccccc2Sc2ncccc21`, the “% Inhibition @ 10 uM” value was -0.397%.

As for `COc1cc2c(cc1OC)CN(Cc1ccsc1)CC2`, the “% Inhibition @ 10 uM” value turned out to be 0.708%.

For `CC/C(=N\O)c1c(C)n(C)c2ccccc12`, the “% Inhibition @ 10 uM” value is given as -0.744%.

Turning to `O=C(CCCn1nc(-c2ccccc2)c2cc(Cl)ccc21)NCc1ccccn1`, the “% Inhibition @ 10 uM” value is listed as 3.45%.

In the case of `CC(C)C(=O)Nc1cccc(N2CCN(CCCN3C(=O)C4CCCCN4C3=O)CC2)c1` (stereo not shown), the “% Inhibition @ 10 uM” value was -11.9%.

With `CC1CN(c2oc(COc3ccc(Cl)cc3)nc2C#N)CC(C)O1` (stereo not shown), the “% Inhibition @ 10 uM” value is -3.16%.

Consider `CCCCSCCCNC(=O)CS(=O)Cc1nc(-c2cccc(C)c2)oc1C` (stereo not shown), for which the “% Inhibition @ 10 uM” value amounted to 0.689%.

Consider `Fc1cccc(CN2CCOCC2)c1`, for which the “% Inhibition @ 10 uM” value is -4.14%.

As for `Cc1cccc(-n2c(C)cc(/C=C3\C(=N)N4N=C(N5CCCC5)SC4=NC3=O)c2C)c1`, the “% Inhibition @ 10 uM” value is reported as -3.44%.

Consider `CSCCC(Nc1c2ccccc2nc2ccccc12)C(=O)O` (stereo not shown), for which the “% Inhibition @ 10 uM” value was 1.74%.

With `COc1cc(CN2CC(C)OC(C)C2)cc(Br)c1O` (stereo not shown), the “% Inhibition @ 10 uM” value was -1.5%.

For `COc1cc(/C=C\C(=O)Nc2c3c(nn2-c2ccc(F)cc2)CSC3)cc(OC)c1OC`, the “% Inhibition @ 10 uM” value is on record as 5.76%.

Regarding `COc1cccc(N2CCN(Cc3nc(O)c4ccccc4n3)CC2)c1`, the “% Inhibition @ 10 uM” value is on record as 0.605%.
